From PubChem BioAssay AID463173 (ICCB-Longwood Screening Facility, Harvard Medical School, 2010) come the findings set out here.

The campaign covered roughly 52,000 compounds. About 1,700 (3.3%) were called active. Rule as the data show it: active = survival mostly below about 52% (no sharp cut-off); inactive = mostly above about 56%. The list shows a part of the results.

In the assay the test system is Wild type. Put plainly: growth inhibition of S. aureus wild type versus tarO mutant, primary screen, teichoic acid synthesis inhibitors, RN4220, OD600 (AID 463173). Conditions: S. aureus RN4220 wild type/DeltatarO growth, OD600, 18 h, active compounds read low, screened at 18.75 µg/mL (by protocol).
Consider `Cc1ccccc1-c1nnc(SCC(=O)N2CCCc3ccccc32)n1C`, for which the survival is inactive: 98%.

In the case of `CC(C)c1ccc(S(=O)(=O)c2cnc(SCC(=O)Nc3ccc(F)cc3F)nc2N)cc1`, the survival was inactive: 87%.

For the molecule `Cc1ccc(-n2nc3c(N4CCC(C(=O)NCCC(C)C)CC4)nnc(C)c3c2C)cc1`, the survival was inactive: 120%. The value for `CCOc1ccccc1NC(=O)c1nnn(CC(=O)Nc2ccccc2CC)c1N` was inactive: 82%. The value for `COc1ccc(NC(=O)c2[nH]nc3c2CSc2ccccc2-3)c(OC)c1` was inactive: 87%; that for `CCC(=O)N1c2ccccc2CC1C(=O)NCCc1ccc(Cl)cc1` (centres undefined) was inactive: 135%. The value for `COc1ccc(C2(NC(=O)c3ccc(Cn4cc(Cl)cn4)o3)CCCCC2)cc1` was inactive: 117%. With `O=C(Cn1nnnc1-c1ccccc1F)Nc1ccc(F)c(F)c1`, the survival was inactive: 85%. In the case of `Cc1cc(C)cc(-n2ccnc2SCC(=O)Nc2ccc(C)c(Cl)c2)c1` it was inactive: 66%; in that of `CC(=O)Nc1ccc(-c2nn3c(C)nnc3s2)cc1`, inactive: 103%. In the case of `O=C(NCCc1ccccc1)C1COc2ccccc2C1` (centres undefined) it was active: 10%; in that of `CCOC(=O)N1CCc2c(sc3c2c(=O)n(-c2ccc(F)cc2)c(=O)n3CC(=O)c2ccccc2)C1`, inactive: 85%.

Consider `Cc1cccc(CN2C(=O)c3ccccc3Sc3ccc(C(=O)NCc4cccs4)cc32)c1`, for which the survival was inactive: 74%. The value for `O=C(Oc1ccc(OC(=O)N2CCOCC2)cc1)N1CCOCC1` was inactive: 128%. In the case of `CCOC(=O)c1c(C)n(-c2ccccc2)c2ccc(OC(=O)c3cc(OC)cc(OC)c3)cc12` it was inactive: 63%. The value for `O=C(Nc1sc2c(c1C(=O)NCCc1ccccc1)CCC2)c1ccco1` was inactive: 115%; that for `CCc1ccc(NC(=O)c2cc(C)nn2-c2ccccc2)cc1` was inactive: 78%; that for `Cc1cc(=O)n(CC(=O)NC(C)c2ccccc2)c2c1c(C)nn2C` (centres undefined) was inactive: 65%. `CCOC(=O)c1c(NC(=O)c2cc3ccccc3c(=O)o2)sc2c1CCC(C(C)(C)C)C2` (centres undefined): the survival is inactive: 69%.

With `CCc1cccc(C)c1NC(=O)C(CC)Sc1nncn2c1cc1occc12` (centres undefined), the survival was inactive: 78%. The value for `CCC(=O)Nc1cc(-c2nc3ccccc3s2)c(Cl)cc1Cl` was inactive: 115%; that for `Cc1ccc(Nc2nc(C)c(NC(=O)c3ccc(C)cc3)c(Nc3ccc(C)cc3)n2)cc1` was inactive: 135%; that for `CCOc1ccc(C(=O)Nc2ccc3oc(-c4ccncc4)nc3c2)cc1` was inactive: 72%. The value for `CCS(=O)(=O)N1CCc2cc(C(=O)Nc3cc(OC)c(Cl)cc3OC)ccc21` was inactive: 75%; that for `CCOc1ccc(NC(=O)CCNS(=O)(=O)c2cccc3nsnc23)cc1` was inactive: 61%. In the case of `Cc1ccc(NC(=O)Cn2cc(C(=O)C3CCCCC3)c3ccccc32)c(C)c1` it was inactive: 65%; in that of `Cn1c(=O)n(C)c2cc(NS(=O)(=O)c3ccc(C(C)(C)C)cc3)c(NCc3ccccc3)cc21`, inactive: 76%; in that of `Cc1cccc(C(=O)Nc2nnc(S(=O)(=O)N3CCCc4ccccc43)s2)c1`, inactive: 27%. `COc1ccc(NC(=O)c2oc3ccccc3c2NC(=O)COc2ccc(F)cc2)c(OC)c1`: the survival is inactive: 79%.

As to `CCCNc1nc2c(c(=O)n(C)c(=O)n2C)n1CC(O)COc1ccccc1` (centres undefined), the survival was inactive: 71%.

As to `O=C(NCc1ccc(F)cc1)C(=O)NCC(c1ccco1)S(=O)(=O)c1cccs1` (centres undefined), the survival is active: 0%.

Take `Cc1ccc(-c2nnc(Nc3cccc(Br)c3)c3ccccc23)cc1S(=O)(=O)NCC1CCCO1` (centres undefined): the survival was inactive: 87%. The value for `O=C(c1ccc2c(c1)N(Cc1ccc(Cl)cc1)C(=O)c1ccccc1S2(=O)=O)N1CCc2ccccc21` was inactive: 147%.

For `CCC(C(=O)Nc1cccc(C#N)c1)n1nc(-c2ccccc2)ccc1=O` (centres undefined), the survival was inactive: 79%.

For `Cc1ccc(NC(=O)CCCn2nc(C)c3sc4ccccc4c3c2=O)c(Cl)c1`, the survival is inactive: 85%. As for `COC(=O)c1ccccc1NC(=O)CSc1nnc2cc(C)c3cc(C)cc(C)c3n12`, the survival is inactive: 72%. The value for `CCN1c2ccccc2-c2nc(SCC(=O)Nc3cc(F)ccc3F)ncc2S1(=O)=O` was inactive: 128%. The value for `COc1ccc(Cl)cc1S(=O)(=O)N1CCCC1` was inactive: 101%. Regarding `CCCc1ccc(-c2ccc(/C=C/C(=O)O)cc2)nc1`, the survival was inactive: 114%. Regarding `O=C(Cn1ccc2cc(S(=O)(=O)N3CCCC3)ccc21)NCc1ccccc1Cl`, the survival is inactive: 65%. The value for `CCOc1ccc(C2C(=O)N(C3CCCCCC3)CC(=O)N2CCc2ccc(Cl)cc2)cc1OC` (centres undefined) was inactive: 83%; that for `Cc1nnc(NCc2ccc(F)cc2)c2c1nnn2Cc1ccccc1Cl` was inactive: 94%; that for `CCOc1ccc(NC(=O)CCn2nc(C)c(S(=O)(=O)N3CCCCC3)c2C)cc1` was inactive: 134%. The value for `O=c1c2ccccc2c2nc3c(=O)c4ccccc4c3nc12` was inactive: 127%. With `COc1ccc(OC)c(NC(=O)CSC2=Nc3ccccc3C3=NC(CCC(=O)NCCc4ccccc4)C(=O)N23)c1` (centres undefined), the survival was inactive: 73%.

As for `O=C(NCCC1=CCCCC1)c1ccc2c(c1)N(Cc1ccc(Cl)cc1)C(=O)c1ccccc1S2(=O)=O`, the survival was inactive: 104%. In the case of `CCc1ccc(N2C(=O)N(CC(=O)C(C)(C)C)c3ccccc3S2(=O)=O)cc1` it was inactive: 71%. In the case of `COc1ccccc1N1CCN(S(=O)(=O)c2c(C)sc3ncn(CC(=O)NCCN(C)C)c(=O)c23)CC1` it was inactive: 85%; in that of `COc1ccc(NC(=O)CC2C(=O)N(c3ccc(C)cc3)C(=O)N2Cc2ccc(C)cc2)cc1` (centres undefined), inactive: 82%; in that of `Cc1c(Cl)cccc1NC(=O)Cn1cnc(S(=O)(=O)N2CCCC2)c1`, inactive: 72%. In the case of `COc1ccc(CCNC(=O)Cn2nc(C)c3c(C)n(-c4ccc(C)cc4)nc3c2=O)c(OC)c1`, the survival was inactive: 68%. In the case of `O=c1c2ccccc2nc(N2CCN(c3cccc(Cl)c3)CC2)n1-c1ccccc1` it was inactive: 81%; in that of `CCN(CC)CCCNC(=O)c1nn(-c2ccc(OC)cc2)c(=O)c2c1c1ccccc1n2C`, inactive: 71%; in that of `Nc1ccc(S(=O)(=O)NC2(C(F)(F)F)NC(=O)N(c3cccc(Cl)c3)C2=O)cc1` (centres undefined), inactive: 153%. In the case of `CCC(C(=O)N1CCN(c2ccc(OC)cc2)CC1)n1nc(C)n2c(cc3occc32)c1=O` (centres undefined) it was inactive: 123%. In the case of `CCC(=O)Nc1ccccc1N1CCN(c2ccc(F)cc2)CC1` it was inactive: 106%; in that of `COc1ccc(Nc2c3c(nc4nncn24)CCC3)cc1Cl`, inactive: 97%.

In the case of `CCOC(=O)c1noc2ncnc(Nc3cccc(C(F)(F)F)c3)c12`, the survival is inactive: 73%. As for `CCc1ccc(NC(=O)CSc2nnc(C(C)C)n2CC)cc1`, the survival is inactive: 98%. In the case of `COC(=O)c1cccc(CN2C(=O)SC(Nc3ccc(Cl)cc3)C2=O)c1` (centres undefined) it was inactive: 59%; in that of `CCCc1cc(=O)[nH]c(Nc2ccc(C)c(O)c2)n1`, inactive: 84%. Regarding `CCCCOc1ccc(C(=O)Nc2nc3c(s2)CC(C)CC3)cc1` (centres undefined), the survival was inactive: 88%. The value for `CC(=O)Nc1ccc(NC(=O)CCc2c(C)nc3c(c(C)nn3-c3ccccc3)c2C)cc1` was inactive: 135%; that for `COCCNC(=O)c1ccc2c(c1)N(Cc1c(F)cccc1Cl)C(=O)c1ccccc1S2` was inactive: 90%. In the case of `CCOC(=O)c1c(C)oc2nc(C)nc(NCc3ccc(OC)cc3)c12`, the survival was inactive: 69%.

On to `O=C(Nc1ccccc1C(F)(F)F)N1CCC2(CC1)Oc1ccccc1C(=O)N2Cc1ccccc1F`, for which the survival was inactive: 71%. In the case of `CC(C)(Oc1ccc(Cl)cc1)C(=O)Nc1nnc2n1CCS2` it was inactive: 71%; in that of `Cc1cnc2c(c1SCC(=O)NCc1ccccc1Cl)c(=O)n(C)c(=O)n2C`, inactive: 129%.

With `CCCCNC(=O)CC1N=C2c3ccccc3N=C(SCC(=O)NCc3ccccc3Cl)N2C1=O` (centres undefined), the survival was inactive: 78%.

Take `COc1cccc(C(=O)Nc2cccc(OCc3cc(=O)n4cccc(C)c4n3)c2)c1`: the survival is inactive: 134%. In the case of `Cc1ccc(NC(=O)CCC(=O)N2CCSc3ccccc32)cc1` it was inactive: 93%; in that of `Cc1ccc(OCC(=O)Nc2ccc(S(=O)(=O)N3CCOCC3)cc2)c(C)c1`, inactive: 120%; in that of `O=C1NC(=O)C(=Cc2ccc(N3CCCC3)cc2)C(=O)N1`, inactive: 106%. In the case of `Cc1ccc(C)c(N2CCN(C(=O)c3nn(C)c4c3CS(=O)(=O)c3ccccc3-4)CC2)c1`, the survival was inactive: 73%. In the case of `COC(=O)c1ccc(NC(=O)CC2C(=O)N(c3ccc(C)cc3)C(=O)N2Cc2ccc(OC)cc2)cc1` (centres undefined), the survival is inactive: 70%. Consider `Clc1ccc(-c2noc(-c3cccnc3N3CCN(c4ccccc4)CC3)n2)cc1`, for which the survival was inactive: 78%. As for `O=C(COc1ccccc1)Nc1nnc(SCc2cc(=O)c3ccccc3[nH]2)s1`, the survival is inactive: 73%. As for `CCc1ccccc1Nc1cc(C(=O)NCCCN(C)C2CCCCC2)c2ccccc2n1`, the survival was inactive: 93%. As for `CCOc1ccc(NC(=O)Cn2cc(C(=O)c3ccccc3)c(=O)c3cc4c(cc32)OCCO4)cc1`, the survival is inactive: 81%. In the case of `Cc1ccn2c(Nc3ccccc3C)c(-c3cccnc3)nc2c1` it was inactive: 71%; in that of `Nc1c(C(=O)C2CC2)oc2ccccc12`, inactive: 107%. For `Fc1ccc(Nc2c(-c3ccco3)nc3ccccn23)cc1`, the survival is inactive: 69%.

With `Cn1c(=O)c(=O)n(C)c2cc(S(=O)(=O)Nc3ccc(Cl)c(C(F)(F)F)c3)ccc21`, the survival is inactive: 69%. In the case of `CCOc1ccc(CCNC(=O)C2CCN(Cc3nc(-c4ccccc4C)oc3C)CC2)cc1OCC` it was inactive: 81%. In the case of `CCOC(=O)c1cc2sccc2n1CC(=O)NC1CCC(C)CC1` (centres undefined) it was inactive: 101%; in that of `O=C(CC(NCc1cccnc1)C(=O)O)Nc1ccc(O)cc1` (centres undefined), inactive: 68%; in that of `CCN(C(=O)CSc1nc2ccccc2n1CC(=O)N1CCCC(C)C1)c1ccccc1` (centres undefined), inactive: 120%.

For the molecule `Cc1ccc(C2c3[nH]c4ccccc4c3CCN2C(=O)CCc2ccccc2)cc1` (centres undefined), the survival was inactive: 72%.

Take `N#C/C(=C/C=C/c1ccco1)c1nc2ccccc2[nH]1`: the survival was inactive: 113%.
